The values that follow are results of earlier work, collected in paper PMC11006913.

The list shows a part of the results.

What all share (conditions): PBM; conditions not shown; double strand, one strand shown; scale: upbm affinity estimate (log intensity, higher = more binding, comparable within an allelic series)
Series [1] has as its target HOXD13 I297V (Homo sapiens) (UniProt P35453).
Series [2] concerns the target HOXD13 I322L (Homo sapiens) (UniProt P35453).
Series [3] deals with HOXD13 N298S (Homo sapiens) (UniProt P35453).
Series [4] deals with HOXD13 Q325K (Homo sapiens) (UniProt P35453).
Series [5] addresses HOXD13 Q325R (Homo sapiens) (UniProt P35453).
The target of series [6] is HOXD13 R306W (Homo sapiens) (UniProt P35453).
In series [7] the target is HOXD13 S316C (Homo sapiens) (UniProt P35453).
In series [8] the target is NKX2-5 K183E (Homo sapiens) (UniProt P52952).
For series [9], the target named is NKX2-5 R161P (Homo sapiens) (UniProt P52952).
In series [10] the target is NKX2-5 R190C (Homo sapiens) (UniProt P52952).
In series [11] the target is ISX (Homo sapiens) (UniProt Q2M1V0).
Series [12] addresses ISX R83Q (Homo sapiens) (UniProt Q2M1V0).
The target in series [13] is PROP1 R112Q (Homo sapiens) (UniProt O75360).
Series [14] addresses PROP1 R99Q (Homo sapiens) (UniProt O75360).

As to CTCGCGAG [8-mer CTCGCGAG], the binding signal in [1] was 9.58; in series [2] it was 9.54; in series [3], 9.43; in [4], 9.36; in series [5], 9.36; in [6] it was 9.61. The binding signal in series [7] was 9.61.

As to AGGACCGG [8-mer AGGACCGG], the binding signal in series [1] was 9.4; in [2] it was 9.38; in series [3] it was 9.37; in series [4], 9.36; in series [5], 9.54; in [6], 9.4. Also, the binding signal in series [7] was 9.38.

Regarding CCTAGCGC [8-mer CCTAGCGC], the binding signal in series [1] is 9.47; in series [2], 9.52; in series [3], 9.37; in [4], 9.26; in series [5], 9.26; in series [6], 9.37. Also, the binding signal was 9.37 in series [7], 10 in [8], 10.1 in series [9] and 10.1 in series [10].

For CGCTCCCC [8-mer CGCTCCCC], the binding signal in series [1] is 9.36; in [2], 9.37; in series [3], 9.24; in series [4] it was 9.33; in [5] it was 9.29; in series [6], 9.28. Besides, in [7], the binding signal is 9.25.

Take CCGAGCCC [8-mer CCGAGCCC]: the binding signal in [1] is 9.5; in series [2], 9.32; in series [3], 9.46; in series [4] it was 9.43; in [5] it was 9.41; in [6], 9.37. The binding signal in [7] was 9.46; in series [11] it was 9.87; in series [12], 9.8; in series [13] it was 11; in [14] it was 11.

In the case of TTAAAGAA [8-mer TTAAAGAA], the binding signal was 10.9 in [1]; 11 in [2]; 11.1 in [3]; 10.8 in series [4]; 10.9 in series [5]; 10.8 in series [7].

CCCCCCTC [8-mer CCCCCCTC]: the binding signal in series [1] is 9.3; in series [2], 9.03; in series [3] it was 9.29; in [4], 9.37; in series [5] it was 9.24; in series [6], 9.13. In addition, the binding signal in [7] is 9.22.

Turning to CATTATGC [8-mer CATTATGC], the binding signal in series [1] is 11.2; in series [2], 10.6; in series [3], 11.2; in series [4], 11.4; in series [5], 11; in series [7], 10.9.

Consider CGGCCACC [8-mer CGGCCACC], for which the binding signal in series [1] is 9.36; in [2] it was 9.26; in [3] it was 9.28; in [4], 9.33; in series [5], 9.24; in series [6], 9.3. Further, the binding signal in series [7] is 9.26; in series [8], 9.83; in series [9] it was 9.73; in [10], 9.9.
